Publication PMC11601910
These are yes or no findings as the source states them, for the method shown. For part of these data: Binding seen in cells or lysates may run through a third protein. Some entries that bind do so weakly or less than the wild type. For part of these data: Where a sequence is shown, tags or fusion partners need not be part of it.

Amino acid sequences for entries named in this document (tags omitted). A change or cut given only in a name is not applied to a line headed by its entry. Residues count along the entry.
UniProt Q7Z434: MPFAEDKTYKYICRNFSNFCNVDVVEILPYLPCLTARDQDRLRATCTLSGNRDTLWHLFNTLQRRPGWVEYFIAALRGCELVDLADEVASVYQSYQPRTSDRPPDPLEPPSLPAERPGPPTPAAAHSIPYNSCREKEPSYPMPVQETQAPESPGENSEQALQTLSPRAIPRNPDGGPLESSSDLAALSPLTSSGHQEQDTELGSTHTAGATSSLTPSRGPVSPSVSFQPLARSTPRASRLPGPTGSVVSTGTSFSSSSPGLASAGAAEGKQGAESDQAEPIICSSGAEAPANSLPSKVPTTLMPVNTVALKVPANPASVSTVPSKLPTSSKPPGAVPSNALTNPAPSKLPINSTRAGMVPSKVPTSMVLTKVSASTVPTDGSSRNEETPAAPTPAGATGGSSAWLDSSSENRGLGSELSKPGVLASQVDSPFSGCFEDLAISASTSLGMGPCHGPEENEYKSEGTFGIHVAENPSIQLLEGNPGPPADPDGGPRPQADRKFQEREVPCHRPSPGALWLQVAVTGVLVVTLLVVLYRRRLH
MAVS ΔTM (aa 1–513): residues 1-513 of Q7Z434
MAVS (N) (aa 1–102): residues 1-102 of Q7Z434
MAVS (C) (aa 103–540): residues 103-540 of Q7Z434

Legend:
[1] = target: T1, ZDHHC12 of Figure 3F (parent of the ZDHHC12 truncations) (UniProt Q96GR4); assay: co-IP; HEK293T transfected with the tagged plasmids for 24 h; whole-cell lysates in low-salt lysis buffer (50 mM HEPES pH 8.0, 150 mM NaCl, 1 mM EDTA, 1.5 mM MgCl2, 10% glycerol, 1% Triton X-100); anti-FLAG beads or antibodies plus protein A/G beads, 4°C overnight; immunoblot
T1 sequence: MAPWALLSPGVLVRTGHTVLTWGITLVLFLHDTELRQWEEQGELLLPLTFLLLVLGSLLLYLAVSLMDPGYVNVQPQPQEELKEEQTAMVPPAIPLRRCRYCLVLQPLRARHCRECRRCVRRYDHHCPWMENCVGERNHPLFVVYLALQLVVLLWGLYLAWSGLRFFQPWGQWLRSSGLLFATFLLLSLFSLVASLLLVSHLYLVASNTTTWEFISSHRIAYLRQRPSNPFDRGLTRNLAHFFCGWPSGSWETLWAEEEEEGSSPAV

[2] = target: T2, endogenous MAVS of mouse bone marrow–derived macrophages (mouse (endogenous in BMDMs)), Q8VCF0; assay: SDD-AGE; endogenous MAVS; WT or ZDHHC12-KO THP-1–derived macrophages and Zdhhc12+/+ or Zdhhc12-/- BMDMs infected with SeV for indicated time periods (aggregation markedly decreased without ZDHHC12); details: remark: other sources report otherwise
T2 chain: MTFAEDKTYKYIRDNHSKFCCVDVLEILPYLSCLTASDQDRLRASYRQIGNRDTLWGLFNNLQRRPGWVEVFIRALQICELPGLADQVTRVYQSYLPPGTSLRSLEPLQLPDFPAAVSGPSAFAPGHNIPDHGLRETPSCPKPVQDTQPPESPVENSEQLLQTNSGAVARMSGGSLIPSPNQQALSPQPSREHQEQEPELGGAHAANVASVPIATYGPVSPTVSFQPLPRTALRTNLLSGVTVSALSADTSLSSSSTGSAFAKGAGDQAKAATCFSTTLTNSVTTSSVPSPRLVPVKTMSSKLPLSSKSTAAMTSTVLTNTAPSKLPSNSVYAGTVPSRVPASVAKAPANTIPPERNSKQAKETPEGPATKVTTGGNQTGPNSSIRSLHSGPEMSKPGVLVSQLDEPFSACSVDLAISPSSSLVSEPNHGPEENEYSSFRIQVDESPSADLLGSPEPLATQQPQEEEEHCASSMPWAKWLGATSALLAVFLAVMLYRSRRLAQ

[3] = target: MAVS ΔTM (aa 1–513) (human) (UniProt Q7Z434); assay: co-IP; HEK293T transfected with the tagged plasmids for 24 h; whole-cell lysates in low-salt lysis buffer (50 mM HEPES pH 8.0, 150 mM NaCl, 1 mM EDTA, 1.5 mM MgCl2, 10% glycerol, 1% Triton X-100); anti-FLAG beads or antibodies plus protein A/G beads, 4°C overnight; immunoblot
[4] = target: FLAG-MAVS (wild type, full-length mitochondrial antiviral-signaling protein) (human) (UniProt Q7Z434); assay: as above
[5] = target: MAVS (C) (aa 103–540) (human) (UniProt Q7Z434); assay: as above
[6] = target: MAVS (N) (aa 1–102) (human) (UniProt Q7Z434); assay: as above
[7] = target: endogenous MAVS of THP-1–derived macrophages (human (endogenous in THP-1)) (UniProt Q7Z434); assay: co-IP; endogenous proteins; THP-1–derived macrophages without SeV or IC poly(I:C) stimulation
[8] = target: endogenous MAVS of THP-1–derived macrophages (human (endogenous in THP-1)) (UniProt Q7Z434); assay: co-IP; endogenous proteins; THP-1–derived macrophages treated with SeV (MOI = 1) or IC poly(I:C) (5 μg/mL) for indicated time periods; also after siCtrl or siTRIM31 for 48 h and SeV for 12 h (association reduced by TRIM31 knock-down)
[9] = target: CFP-MAVS WT / YFP-MAVS WT (human) (UniProt Q7Z434); assay: FRET or BRET; HEK293T transfected with CFP-MAVS (donor) and YFP-ZDHHC12 (acceptor) for 24 h, SeV (MOI = 1) for 12 h; fixed cells, sensitized emission, Leica TCS SP8

With HA-MAVS (from UniProt Q7Z434 1-540) the binding [1] was “binds”.

B1: endogenous MAVS of mouse bone marrow–derived macrophages, Q8VCF0 1-503 (protein)
chain: T2 chain
For B1, the binding [2] was “binds”.

B2: HA-ZDHHC12 (enzyme, UniProt Q96GR4 1-267)
chain: T1 sequence
In the case of B2, the binding [3] is reported as “no binding”, the binding [4] is reported as “binds” and the binding [5] is reported as “no binding”. The binding [6] was “no binding”.

B3: endogenous ZDHHC12 of THP-1–derived macrophages (enzyme, UniProt Q96GR4 1-267)
chain: T1 sequence
For B3, the binding [7] was “binds weakly” and the binding [8] was “binds”.

B4: YFP-ZDHHC12 (enzyme, UniProt Q96GR4 1-267)
chain: T1 sequence
B4 was tested, and the binding [9] was “binds”.
